Reference: PubChem BioAssay AID445 (National Center for Advancing Translational Sciences (NCATS), 2006)
In all, about 110,000 compounds went through this assay and about 40 (0.04%) were called active. The shares of active, inactive and inconclusive entries below differ from those in the screen. Calls follow the shape of the dose curve; as a rule, active = well fitted curve in the direction sought with a large enough effect in the signal ratio (not every such curve was filed as active); inconclusive = small, poorly fitted or top-dose-only effect, or a change in a side signal; inactive = flat fitted curve, though single readings scatter; the % refers to the signal ratio. A potency beside an inconclusive call is a rough fit, not a confirmed value.

assay: IkB Signaling; conditions: ABC-DLBCL IkBa-CBG/CBR dual luciferase ratio (green luciferase fused to IkBa over red control in OCI-Ly3 lymphoma cells), 4 h; IkBa stabilization activation: at 57.1 µM (top of the series), scaled: untreated 0%, proteasome inhibitor 100% unless noted
How it was run: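 Curves were fitted separately to fusion (green), unfused (red) and ratio luminescence, then classed by r2, magnitude and activity. Cells: OCI-Ly3, 4 h compound plus doxycycline at 37C; 10 uM MG-132 defined full response.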
Potency is read from the fitted curve at half-maximal effect.

SMILES	IkBa stabilization activation	Potency
CCCn1c(=O)c2ccccc2n2c(SCCOc3ccc(C)cc3)nnc12	inactive	–
CS(=O)(=O)N1CCc2cc(C(=O)N3CCN(c4cccc(Cl)c4)CC3)ccc21	inconclusive: -0.322% [signal inhibitor]	–
Cc1ccc2nc(N3CCN(C)CC3)c(C#N)cc2c1	inactive	–
Cc1ccc(C)c(N2CCN(C(=O)c3cn(CC(C)C)c(=O)c4c3c3ccccc3n4C)CC2)c1	inconclusive: 4.92% [signal inhibitor]	–
Cc1ccc(NC(=O)C2(c3cccs3)CCOCC2)cc1Cl	inconclusive: -3.02% [signal inhibitor]	–
Cc1ccc(C)c(CSc2nc(-c3ccccc3F)nc3c2Cc2c(CO)cnc(C)c2O3)c1	inactive	–
COc1ccc(NC(=O)Cn2c(=O)n(-c3cc(C)cc(C)c3)c(=O)c3oc4ccccc4c32)cc1OC	inactive	–
CC(c1ccccc1)N1CC(C(=O)N2CCN(c3ccccc3)CC2)CC1=O (configuration not stated)	inactive	–
Cc1ccc2c(CNCCc3ccccc3)c(C(=O)O)n(Cc3ccccc3C)c2c1	inactive	–
CCC(Cn1nnc2ccccc2c1=O)NC(=O)Nc1cc(C)cc(C)c1 (configuration not stated)	inactive	–
CC(=O)N1CCCc2cc(S(=O)(=O)N3CCCC(C(=O)N4CCN(c5cccc(Cl)c5)CC4)C3)ccc21 (configuration not stated)	inconclusive: 0.68% [signal inhibitor]	–
CCOc1cc2sc(N3CCC(C(=O)Nc4ccc(CC)cc4)CC3)nc2cc1Br	inconclusive: 13.2% [signal inhibitor]	–
CCOc1ccc(CNC(=O)c2cccc(NC(=O)N3CCSc4ncccc43)c2)cc1OC	inconclusive: -0.615% [signal inhibitor]	–
CCc1ccc(C(=O)c2cn(CC(=O)Nc3ccc(Cl)cc3)c3cc4c(cc3c2=O)OCO4)cc1	inconclusive: 8.44% [signal inhibitor]	–
Cc1ccc(C)c(CSc2nnc3[nH]c(=O)cc(C)n23)c1	inconclusive: -2.22% [signal inhibitor]	–
CC(C)c1nn2c(=O)cc(COC(=O)c3cccc(NC(=O)COc4ccc(F)cc4)c3)nc2s1	inconclusive: 9.76% [signal inhibitor]	–
COc1ccc(C)cc1NC(=O)c1noc2c1CSc1ccccc1-2	inconclusive: 2.46% [signal inhibitor]	–
COc1ccc(S(=O)(=O)N(C)CC(=O)O)c2ccccc12	inactive	–
C=C(C)CN(CC)c1nc(N)c(C#N)c(CC#N)c1C#N	inconclusive: 3.86% [signal inhibitor]	–
COc1ccc(C2C(C(=O)Nc3ccccc3)=C(C)Nc3c(C(=O)Nc4ccccc4)cnn32)cc1 (configuration not stated)	inconclusive: -2.79% [signal inhibitor]	–
Cc1cc(C(=O)Nc2sc3c(c2C#N)CCC3)no1	inactive	–
c1ccc(Nc2cc(Nc3ccccc3)[nH]n2)cc1	inactive	–
CCCCNC(=O)c1nn(C)c2c1CSc1ccccc1-2	inconclusive: 1.52% [signal inhibitor]	–
Cc1ccc(C(=O)c2cn(Cc3cccc(Cl)c3)c3nc(C)ccc3c2=O)cc1	inconclusive: 4.66% [signal inhibitor]	–

SMILES	IkBa stabilization activation	Potency
Cn1cccc1Cc1nnc(SCC(=O)Nc2ccc3c(c2)OCCO3)n1-c1ccc(F)cc1	inconclusive: 4.03% [signal inhibitor]	–
Cc1cccc(N2C(=O)CC(c3ccc(F)cc3)C3=C2COC3=O)c1 (configuration not stated)	inconclusive: 2.56% [signal inhibitor]	–
CCOc1ccccc1N1CCN(Cc2cccc(OC)c2O)CC1	inconclusive: 2% [signal inhibitor]	–
O=C(COc1ccc(Cl)cc1Cl)NC(=O)N1CCCCC1	inactive	–
CCCCCCn1nnc2sc(-c3ccccc3)cc2c1=O	inconclusive: -0.104% [signal inhibitor]	–
CCC1CN(C(=O)Nc2ccccc2F)c2cc(C)ccc2O1 (configuration not stated)	inconclusive: 1.53% [signal inhibitor]	–
COc1cc(C)ccc1OCCSc1nc2ccc(NC(=O)c3ccco3)cc2s1	inconclusive: 3.82% [signal inhibitor]	–
CC1CCN(C(=O)c2cc(-c3ccccc3O)on2)CC1	inactive	–
COc1ccc(OC)c(NC(=O)CSc2nc(=O)n(CCN(C)C)c3c2CCC3)c1	inconclusive: 5.04% [signal inhibitor]	–
Cc1cc(-c2cc(N)n(-c3ccccc3)n2)c(C)n1C1CCCC1	inconclusive: 7.76% [signal inhibitor]	–
COc1cc(NC(=O)CC2C(=O)N(c3ccccc3)C(=O)N2Cc2ccc(F)cc2)cc(OC)c1 (configuration not stated)	inconclusive: 2.11% [signal inhibitor]	–
CCCOc1ccc(C2C(=O)N(C3CCCCCC3)CC(=O)N2Cc2ccccc2OC)cc1OC (configuration not stated)	inconclusive: -0.966% [signal inhibitor]	–
FC(F)(F)c1ccccc1-c1nccc(-n2ccnc2)n1	inactive: -0.368% [at 11.4 µM, scaled: untreated 0%, proteasome inhibitor 100%]	–
Cc1ccc(C(=O)O[C@@H](C(=O)O)[C@@H](OC(=O)c2ccc(C)cc2)C(=O)O)cc1 (tested in a mixture with another compound)	inactive	–
CCCCCn1c(CCNC(=O)c2cccs2)nc2ccccc21	inconclusive: 10.3% [signal inhibitor]	–
CC1CCc2c(sc(NC(=O)Cc3ccccc3)c2C(=O)Nc2ccc(Cl)cc2)C1 (configuration not stated)	inconclusive: 3.52% [signal inhibitor]	–
Cc1coc(NC(=O)CSc2nc(-c3ccncc3)cc(C(F)(F)F)c2C#N)n1	inactive	–
CC(C)c1nnc(NC(=O)c2c(O)c3cccc4c3n(c2=O)CCC4)s1	inconclusive: 6.34% [signal inhibitor]	–
C[C@@H]1C[C@@]2(C)Oc3ccccc3[C@H]3OC[C@]1(COC(=O)Nc1ccccc1)[C@@H](C)[C@@H]32	inactive: 0.81% [at 11.4 µM, scaled: untreated 0%, proteasome inhibitor 100%]	–
Cc1noc(C)c1C(=O)OCC(=O)c1c[nH]c2ccccc12	inactive	–
CCOc1cccc(-c2nnc3sc(COc4ccc(Cl)cc4)nn23)c1	inactive	–
CCOC(=O)c1cc(-c2ccccc2)n(-c2cccc(C(=O)Nc3cccc(SC)c3)c2)c1C	inactive	–
CCOC(=O)c1ccc(CC(=O)c2oc3cc(O)ccc3c2C)o1	inconclusive: 1.87% [signal inhibitor]	–
CCCCN(CCCC)S(=O)(=O)c1ccc(C(=O)Nc2nnc(CSC)o2)cc1	inactive	–

SMILES	IkBa stabilization activation	Potency
COc1ccc(NC(=O)CSc2nc3ccccc3c(=O)n2-c2ccc3c(c2)OCO3)c(OC)c1	inactive	–
O=C(CCNS(=O)(=O)c1ccc2c(c1)CCCC(=O)N2)Nc1cccc(Cl)c1	inconclusive: -0.00636% [signal inhibitor]	–
COC(=O)Cn1c(C2CC(=O)N(c3c(C)cccc3C)C2)nc2ccccc21 (configuration not stated)	inactive	–
Cc1cc(NC(=O)CCc2nc3cccnc3n2-c2ccccc2)ccc1Br	inconclusive: 1.36% [signal inhibitor]	–
O=C(Cn1nnc(-c2ccncc2)n1)N(C1CCCCC1)C1CCCCC1	inconclusive: 8.38% [signal inhibitor]	–
Cc1ccccc1NC(=O)Cn1cc(C(=O)c2ccco2)c2ccccc21	inconclusive: 5.36% [signal inhibitor]	–
Cc1ccccc1Cn1ccc(NC(=O)CCSc2nc(-c3ccco3)cc(C(F)(F)F)n2)n1	inconclusive: 2.52% [signal inhibitor]	–
CCOC(=O)CSc1nc2ccccc2c(=O)n1NC(=O)c1ccccc1	inconclusive: 8.68% [signal inhibitor]	–
Cn1nccc1C(=O)OCC(=O)Nc1nc(-c2ccccc2)cs1	inconclusive: 0.251% [signal inhibitor]	–
Cc1ccc(N=Nc2c(O)ccc3cc(S(=O)(=O)O)ccc23)cc1	inactive: -0.698% [at 11.4 µM, scaled: untreated 0%, proteasome inhibitor 100%]	–
COC(=O)c1ccccc1Nc1cc(C)nc2nc(C)nn12	inactive	–
CCCCC(=O)Nc1ccc2nc(SCC(=O)N3CCc4ccccc43)sc2c1	inconclusive: -0.0684% [signal inhibitor]	–
CN1C(=O)CSc2ccc(NC(=O)NCCC3=CCCCC3)cc21	inconclusive: -1.68% [signal inhibitor]	–
O=C(CCc1ccccc1)Nc1ccc(Cl)cn1	–	inconclusive: 25.1 µM [signal inhibitor, partial curve]
CCOC(=O)N1CCc2c(sc3c2c(=O)n(Cc2ccccc2)c(=O)n3CC(=O)Nc2cccc(CC)c2)C1	inconclusive: 2.92% [signal inhibitor]	–
O=C(CCCn1c2ccccc2c(=O)c2ccccc21)Nc1cccc(Cl)c1	inconclusive: -1.3% [signal inhibitor]	–
COc1cccc(CNC(=O)c2cc3c(-c4ccccc4F)nn(C)c3s2)c1	inconclusive: -0.253% [signal inhibitor]	–
CCOC(=O)c1cccc(NC(=O)CCSCCc2ccccn2)c1	inactive	–
C=CCNc1nc2c(c(=O)n(C)c(=O)n2C)n1Cc1ccc(F)cc1	inactive	–
Cc1csc2nc(COC(=O)c3ccccc3NC(=O)c3cccc(Br)c3)cc(=O)n12	inactive	–
CC(=O)c1c(C)[nH]c(C(=O)Nc2ccc3c(c2)OCCO3)c1C	inactive	–
O=C(NCCc1ccc(Cl)cc1)c1c2c(nc3ccccc13)C(=O)N(C1CCCCC1)C2	inconclusive: 3.17% [signal inhibitor]	–
O=S(=O)(c1ccc(Br)s1)N1CCN(c2cccc(C(F)(F)F)c2)CC1	inconclusive: 3.68% [signal inhibitor]	–
COc1ccc(CCNC(=O)CCSc2nc(-c3ccco3)cc(C(F)(F)F)n2)cc1OC	inconclusive: 5.34% [signal inhibitor]	–
